From the supplement of paper PMC12632987
Over roughly 4,500 sequences, “median log2 fold change of GCK-ALFA target abundance (FLAG IP / Myc IP barcode read proportion)” has its median near 0.078; the lowest 2% begin near -0.6. Some of the results follow.

B1: GBRAP_83_6961 (protein)
chain: MIVVAASERPESIRSSIEAAIDLHKNEGKEVEIELFVTRENAPAALEGLKKAIDAGVEAEITLVTREEDREAAEALAAELKAYAAAKGRNTTVTVEVLPA
B2: GBRAP_160_4854 (protein)
chain: SEKLEKALKIIDEEEEFAVDAIREAPQSQRGAIATAIAGTALLTLEEEGLVSEETEEKLAAIVDDMAARLAAAADAPAEVHIAIVTEAFEKMKKVIKEEM
B3: GBRAP_14_3813 (protein)
chain: KEELIKKIKEILDELREELVELLGLDEAEVTKLVEKAEKEIKEAILTEKDPKKKIEEIMEKLRKEVEALAAKLGEDVAAAARALVTDAEHEILELIEESE
B4: GBRAP_160_4644 (protein)
chain: SEAVEEMHEIVDEYSEFALEAIEEGDMDNAIAAMRMMVGDLVLEADEDPRFSDEDVDELDKLGEKHVKELEEAKDKSKEELKKIVEEAKEELKKLIEEKY
B5: GBRAP_11_2798 (protein)
chain: KKEELEKAKKLAEELAKLLEQLIKEGVDNEELRKEIEKKLKELKELAEKYLDKGNQKLVEIIEELFKKIDEDPENALQYAQLALATARVLAGNILLDIEE
B6: GBRAP_184_5104 (protein)
chain: KTLVVEVVAKTAEEAIAQLDAAIDEAAAAGASLTVLLKLENVSEEEIVEVVRRVGERARAAGIPALTIGIENELSEETVDRLIKVADELGINLVLVIPDE
B7: GBRAP_160_4800 (protein)
chain: MERVKKVVEIFREELERALEMAKGETNEERVNIFDVELGSAIMEAIEEGLLNDEEEEVAAEVRDELVAEIAANPDLTEEELRELAERAVKELEERLRELE
B8: GBRAP_11_2702 (protein)
chain: KKEKLKKAAELARKAAEVVEQLLKEGVDNKELREELEKLLEELEKLTKEYGDKALQKLAEIAKELWEEAKADPENAVQYLKELLAALRVLEGQYLLEIEE

These binders were tested against GABARAP, O95166 (assay: median log2 fold change of GCK-ALFA target abundance (FLAG IP / Myc IP barcode read proportion) (log2 ratio); each designed protein is fused to an ALFA-tag nanobody in HEK293 cells to bring the named protein to FLAG-tagged glucokinase (GCK); Myc marks an untargeted standard; higher = target protein stabilised (more abundant)). Settings: target protein: 3xFLAG-MCP-GCK-ALFA reporter; HEK293 landing pad (RPLP).
How it was run: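 Sequencing of reverse-transcribed, amplified circular RNA barcodes from anti-FLAG and anti-Myc immunoprecipitates provided the readout for an ALFA-nanobody-fused binder library recombined into HEK293 landing-pad cells. Those cells were induced with 2 μg mL^−1 doxycycline, transfected with a plasmid expressing a FLAG-tagged target and a Myc-tagged standard, and lysed after 48 h. Target abundance is the per-binder median log2 ratio of FLAG to Myc barcode read proportions. Only barcodes at a proportion of ≥10^−7 in both replicates and binders with ≥3 barcodes per replicate were kept, with a 10^−6 pseudocount added before the two replicates were pooled.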

Sequence of GABARAP, O95166 (O95166 whole entry, the tested form may be a part): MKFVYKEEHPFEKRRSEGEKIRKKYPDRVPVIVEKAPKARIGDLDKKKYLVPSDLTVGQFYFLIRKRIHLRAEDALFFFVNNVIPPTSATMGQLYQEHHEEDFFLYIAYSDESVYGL

Binder | median log2 fold change
B1 | 0.189
B2 | -0.223
B3 | 0.109
B4 | -0.295
B5 | 0.424
B6 | -0.109
B7 | 0.0969
B8 | 0.134
